Where a name gives a salt, the structure may show the parent alone. Some of the results follow. Single values are uncertain, as repeats are few or missing.
Columns and labels:
Assay in all cases: proliferation Z-score within cell line (SRB, relative to all inhibitors screened on that line); triple-negative breast cancer lines and a kinase inhibitor library; SRB is the sulforhodamine B protein stain; higher = less growth inhibition (more resistant)
Settings in all cases: concentration: 1 µM; 4 days
[1] = system: Bt20
[2] = system: Bt549
[3] = system: HCC1143
[4] = system: HCC1806
[5] = system: HCC1937
[6] = system: HCC38
[7] = system: HCC70
[8] = system: Hs578T
[9] = system: MDA-MB-231
[10] = system: MDA-MB-435s
[11] = system: MDA-MB-436
[12] = system: MDA-MB-453
[13] = system: MDA-MB-468
[14] = system: SKBR7
[15] = system: SUM1315MO2
[16] = system: SUM149PT
[17] = system: SUM159PT
[18] = system: SUM185PE
[19] = system: SUM229PE
[20] = system: SUM52PE
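Further: Single-dose primary screen of a 378-member kinase inhibitor library in 96-well plates, with growth read as absorbance of protein-bound SRB dye after TCA fixation.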

Structure (SMILES)	proliferation Z-score within cell line [1]	proliferation Z-score within cell line [2]	proliferation Z-score within cell line [3]	proliferation Z-score within cell line [4]	proliferation Z-score within cell line [5]	proliferation Z-score within cell line [6]	proliferation Z-score within cell line [7]	proliferation Z-score within cell line [8]	proliferation Z-score within cell line [9]	proliferation Z-score within cell line [10]	proliferation Z-score within cell line [11]	proliferation Z-score within cell line [12]	proliferation Z-score within cell line [13]	proliferation Z-score within cell line [14]	proliferation Z-score within cell line [15]	proliferation Z-score within cell line [16]	proliferation Z-score within cell line [17]	proliferation Z-score within cell line [18]	proliferation Z-score within cell line [19]	proliferation Z-score within cell line [20]
CC[C@@H]1C(=O)N(C)c2cnc(Nc3ccc(C(=O)N[C@H]4CC[C@H](N5CCN(CC6CC6)CC5)CC4)cc3OC)nc2N1C(C)C [Volasertib (BI 6727)]	-2.35	-2.17	-3.45	-2.09	-1.47	-4.28	-2.29	-1.68	-2.52	-1.71	-1.55	-1.9	-2.39	-2.59	-1.93	-2.47	-3.66	-1.05	-1.01	-1.82
O=C(Cc1ccc(-c2ccc(OCCN3CCOCC3)cc2)cn1)NCc1ccccc1	-0.739	-1.74	-1.61	-1.42	-0.78	-2.15	-0.655	-1.31	-1.37	-1.12	-1.75	-1.24	-1.46	-1.74	-1.47	-1.38	-2.18	-0.802	-0.846	-1.09
NC1(C(=O)N[C@@H](CCO)c2ccc(Cl)cc2)CCN(c2ncnc3[nH]ccc23)CC1	-2.32	-1.31	-0.0425	0.237	-1.35	-0.681	-2.74	-1.68	0.588	0.253	-0.402	-1.82	-1.55	-0.537	0.505	-1.59	-0.32	-1.73	0.494	-0.365
Clc1ccc(C2(c3ccc(-c4cn[nH]c4)cc3)CCNCC2)cc1	0.0679	0.0532	-0.292	0.607	0.397	-0.225	-2.06	-0.421	0.0151	0.337	-0.372	0.882	0.128	0.917	0.375	0.449	-0.919	0.0698	0.456	0.895
Oc1cc(O)cc(/C=C/c2ccc(O)c(O)c2)c1 [Piceatannol]	0.632	0.83	0.529	0.814	0.736	0.555	0.583	0.721	0.651	0.803	0.536	0.9	0.908	1.17	0.773	0.805	0.499	0.537	0.384	0.66
CC(C)(C)c1cnc(CSc2cnc(NC(=O)C3CCNCC3)s2)o1	-3.18	-3.92	0.525	-2.86	0.219	-4.24	0.735	-3.85	-2.38	-2.67	0.934	-2.27	-2.01	-2.99	-3.01	-3.15	0.504	-1.63	-2.99	-1.29
Cc1ncc(-c2ccnc(Nc3ccc(S(C)(=O)=O)cc3)n2)n1C(C)C	0.401	-0.7	-0.564	0.605	0.693	0.52	-0.254	0.244	-1.41	-0.131	-0.286	-0.425	-0.616	-1.15	0.723	0.477	-0.937	1.43	0.358	0.17
COc1ccc2c(Oc3ccc(NC(=O)c4c(C)n(CC(C)(C)O)n(-c5ccccc5)c4=O)nc3)ccnc2c1	0.474	0.67	0.738	0.841	0.59	0.47	0.651	0.668	1.06	0.761	0.654	0.97	1.09	0.522	0.696	0.745	0.439	0.67	0.649	0.949
O=c1cc(N2CCOCC2)oc2c(-c3ccccc3)cccc12	0.612	0.281	0.561	0.32	0.507	0.513	0.426	0.464	0.776	0.54	0.647	0.36	0.9	-0.674	0.39	0.597	0.312	0.289	0.0689	0.133
Cc1cc(NC(=O)c2cccc(NC(=O)/C=C/CN(C)C)c2)ccc1Nc1nccc(-c2cccnc2)n1	0.539	0.126	0.0319	-0.31	0.7	0.475	0.574	0.577	0.441	0.691	0.411	0.291	-0.385	0.758	-0.543	0.611	0.48	0.329	0.192	0.503
COc1cc2ncnc(Nc3ccc(O)c(Br)c3)c2cc1OC	0.0659	0.377	0.0669	0.0229	0.578	0.378	0.488	0.531	0.0636	-1.02	0.399	0.373	-0.486	0.0528	0.293	-0.646	0.273	0.286	-0.501	0.658
Cc1ccc(NC(=O)c2ccc(CN3CCN(C)CC3)cc2)cc1Nc1nccc(-c2cccnc2)n1 [Imatinib (STI571)]	0.965	1.06	0.813	1.19	0.966	0.586	0.73	0.643	1.06	1.08	0.482	1.02	1.05	0.7	1.44	1.29	0.635	0.871	0.707	1.1
CN(C(Cc1ccc(OS(=O)(=O)c2cccc3cnccc23)cc1)C(=O)N1CCN(c2ccccc2)CC1)S(=O)(=O)c1cccc2cnccc12 (stereo not given)	0.783	0.562	0.821	0.633	0.49	0.446	0.657	0.397	0.695	0.797	1.32	0.82	0.566	0.332	0.441	0.12	0.451	0.981	0.979	1.02
Cn1cc(-c2ccc3nnc(C(F)(F)c4ccc5ncccc5c4)n3n2)cn1	0.0858	0.304	0.494	0.127	0.435	0.133	0.427	0.497	0.882	0.447	0.644	0.11	0.787	0.0993	0.391	0.248	0.106	0.54	0.0431	0.629
N#C/C(=C(/N)Sc1ccc(N)cc1)c1ccccc1C(F)(F)F	-0.552	0.654	0.224	-0.94	-0.11	0.454	0.482	0.333	0.124	-0.257	0.1	1.15	0.399	1.24	-0.467	0.036	0.449	-0.259	-0.877	-0.3
CCc1nc(-c2cccc(C)c2)c(-c2ccnc(NC(=O)c3ccccc3)c2)s1	0.104	0.479	0.294	0.311	0.24	0.312	0.154	0.367	0.413	0.442	0.366	0.381	0.188	-0.599	0.307	-0.0886	0.169	0.471	0.329	0.308
C#Cc1cccc(Nc2ncnc3cc(OCCOC)c(OCCO)cc23)c1	-0.21	0.593	0.514	-1.38	0.561	0.402	0.612	0.373	0.704	0.768	0.613	0.607	-0.596	0.577	0.697	-0.492	0.464	0.972	-0.101	0.928
Cn1cc(-c2ccc3nnc(Sc4ccc5ncccc5c4)n3n2)cn1	1.03	0.707	0.879	0.933	0.77	0.512	0.776	0.664	0.885	0.912	0.817	1.05	1.09	1.8	1.13	0.65	0.571	1.62	0.563	1.35
O=C(Nc1cccc(Cl)c1)Nc1ncc(CCNc2ncnc3ccsc23)s1 [SNS-314 Mesylate]	-1.01	-0.173	0.558	0.398	0.461	-0.431	0.617	-0.321	-1.04	-0.185	-0.41	-0.617	-1.89	-0.48	0.845	0.225	0.0614	1.06	0.202	-0.281
COc1cc2nccc(Oc3ccc(NC(=O)Nc4ccc(F)cc4F)c(F)c3)c2cc1OC	0.337	0.629	0.703	1.64	0.961	0.532	0.84	0.665	0.77	0.845	1.43	0.829	0.659	0.888	0.498	1.01	0.677	0.191	0.579	-0.389
N[C@@H]1CCCN(c2c(/C=C3\SC(=O)NC3=O)cccc2-c2ccccc2)C1	0.413	0.128	0.524	0.574	0.458	0.554	0.6	0.65	0.417	0.028	0.67	0.734	0.793	0.111	0.27	0.643	0.448	0.109	0.292	0.822
O=C(/C=C/c1ccc2ccccc2n1)c1ccncc1	0.432	0.444	0.71	0.645	0.435	0.533	0.414	0.572	0.516	0.748	0.22	0.097	0.534	0.146	0.414	0.802	0.484	0.259	0.737	0.911
Cc1cnc(-c2cnc(NCCNc3ccc(C#N)cn3)nc2-c2ccc(Cl)cc2Cl)[nH]1	1.28	0.768	0.742	0.715	0.891	0.48	0.603	0.543	0.143	0.688	1	0.623	1.09	0.321	2.5	1.1	0.351	1.72	1.6	1.28
O=c1ncn2nc(Sc3ccc(F)cc3F)ccc2c1-c1c(Cl)cccc1Cl	0.46	0.435	1.01	0.435	-0.0857	0.52	0.583	0.512	0.809	0.767	0.245	0.834	0.77	0.177	0.477	0.516	0.54	0.813	0.679	0.671

Source: the supplement of paper PMC6746778
